Test results published in the supplement of paper PMC4967469.
pIC50: −log10 of the molar value. Lines with a small IC50 respond at low doses; a fit beyond the top or the lowest dose is shown as a bound at that dose. AUC, from the same fit, is the share of area under the viability curve across the 256-fold dose range; values near 1 show little effect. For part of these data: Where the top dose is marked as inferred, it is not printed in the source and was worked back from the curve model.

Legend:
Assay in all cases: Viability of human cancer cell lines after 72 h of drug (GDSC screen)
[1] = compound: O=C(/C=C/c1ccccc1)NC(NC(=S)Nc1cccc2cccnc12)C(Cl)(Cl)Cl [Salubrinal]; conditions: top dose 16 µM; top dose inferred
Protocol: (§1)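 Human cancer cell lines in 384-well plates, medium with 10% serum, drug for 72 h over a 256-fold dose range (nine 2-fold or five 4-fold steps up to the top dose). Adherent lines were fixed and stained with the nucleic acid dye Syto60, suspension lines read with resazurin; signal relative to control wells, capped at 0 and 100%. One two-parameter sigmoid per drug and line, fitted in a mixed model over all curves with the slope shared within a line.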

[2] = compound: COc1cc2ncn(-c3cc(OCc4ccccc4C(F)(F)F)c(C(N)=O)s3)c2cc1OC [GW843682X]; conditions: top dose 0.256 µM
Protocol: as §1

[3] = compound: CC(=O)Nc1nc(C)c(-c2ccc(Cl)c(S(=O)(=O)NCCO)c2)s1 [PIK-93]; conditions: top dose 20 µM
Protocol: as §1

[4] = compound: COc1cc(/C=C/C(=O)N2CCC=CC2=O)cc(OC)c1OC [piperlongumine]; conditions: top dose 10 µM
Protocol: as §1

[5] = compound: CC1(C)CCC(c2ccc(Cl)cc2)=C(CN2CCN(c3ccc(C(=O)NS(=O)(=O)c4ccc(N[C@H](CCN5CCOCC5)CSc5ccccc5)c(S(=O)(=O)C(F)(F)F)c4)cc3)CC2)C1 [ABT-263]; conditions: top dose 2 µM; top dose inferred
Protocol: as §1

[6] = compound: Cn1cc(/C=C2\C(=O)Nc3cccnc32)c2ccccc21 [GW 441756]; conditions: top dose 2 µM; top dose inferred
Protocol: as §1

| Cell Line | AUC [1] | pIC50 [1] | AUC [2] | pIC50 [2] | AUC [3] | pIC50 [3] | AUC [4] | pIC50 [4] | AUC [5] | pIC50 [5] | AUC [6] | pIC50 [6] |
| --- | --- | --- | --- | --- | --- | --- | --- | --- | --- | --- | --- | --- |
| KNS-81-FD (glioma, adherent) | 0.888 | < 4.80 | 0.894 | < 6.59 | 0.806 | 4.83 | 0.731 | 5.44 | 0.721 | 6.17 | 0.961 | < 5.70 |
| KP-N-YN (neuroblastoma, adherent) | 0.987 | < 4.80 | 0.967 | < 6.59 | 0.957 | < 4.70 | 0.811 | 5.23 | 0.618 | 6.56 | 0.96 | < 5.70 |
| KS-1 (glioma, adherent) | 0.814 | 4.94 | 0.598 | 7.50 | 0.766 | 5.04 | 0.687 | 5.62 | 0.94 | < 5.70 | 0.98 | < 5.70 |
| KU812 (chronic myeloid leukaemia, suspension) | 0.904 | < 4.80 | 0.569 | 7.61 | 0.031 | > 7.11 | 0.865 | 5.12 | 0.588 | 6.67 | 0.945 | < 5.70 |
| KURAMOCHI (ovary, adherent) | 0.945 | < 4.80 | 0.546 | 7.66 | 0.781 | 5.01 | 0.843 | 5.06 | 0.927 | < 5.70 | 0.903 | < 5.70 |
| KY821 (leukaemia, suspension) | 0.953 | < 4.80 | 0.445 | 7.94 | 0.942 | < 4.70 | 0.836 | 5.26 | 0.28 | 7.48 | 0.987 | < 5.70 |
| L-363 (myeloma, suspension) | 0.867 | 4.95 | 0.627 | 7.47 | 0.703 | 5.37 | 0.698 | 5.69 | 0.975 | < 5.70 | 0.981 | < 5.70 |
| L-428 (Hodgkin lymphoma, suspension) | 0.894 | 4.82 | 0.72 | 7.21 | 0.912 | < 4.70 | 0.927 | < 5.00 | 0.802 | 6.07 | 0.992 | < 5.70 |
| L-540 (Hodgkin lymphoma, suspension) | 0.871 | 4.91 | 0.799 | 6.97 | 0.783 | 5.13 | 0.732 | 5.58 | 0.96 | < 5.70 | 0.963 | < 5.70 |
| L-1236 (Hodgkin lymphoma, suspension) | 0.92 | < 4.80 | 0.942 | < 6.59 | 0.751 | 5.25 | 0.828 | 5.31 | 0.494 | 6.92 | 0.951 | < 5.70 |
| LAMA-84 (chronic myeloid leukaemia, suspension) | 0.857 | 4.87 | 0.654 | 7.36 | 0.779 | 5.08 | 0.941 | < 5.00 | 0.491 | 6.93 | 0.94 | < 5.70 |
| LAN-6 (neuroblastoma, adherent) | 0.94 | < 4.80 | 0.829 | 6.69 | 0.936 | < 4.70 | 0.782 | 5.30 | 0.824 | 5.82 | 0.969 | < 5.70 |
| LB373-MEL-D (melanoma, adherent) | 0.981 | < 4.80 | 0.798 | 6.92 | 0.878 | 4.71 | 0.839 | 5.18 | 0.981 | < 5.70 | 0.942 | < 5.70 |
| LB771-HNC (head and neck, adherent) | 0.905 | < 4.80 | 0.709 | 7.14 | 0.847 | < 4.70 | 0.848 | < 5.00 | 0.978 | < 5.70 | 0.897 | < 5.70 |
| LB831-BLC (bladder, adherent) | 0.919 | < 4.80 | 0.828 | 6.79 | 0.91 | < 4.70 | 0.783 | 5.37 | 0.957 | < 5.70 | 0.975 | < 5.70 |
| LB1047-RCC (kidney, adherent) | 0.937 | < 4.80 | 0.65 | 7.36 | 0.806 | 4.93 | 0.774 | 5.35 | 0.919 | < 5.70 | 0.859 | 5.70 |
| LB2518-MEL (melanoma, adherent) | 0.795 | 5.11 | 0.684 | 7.27 | 0.925 | < 4.70 | 0.894 | < 5.00 | 0.939 | < 5.70 | 0.987 | < 5.70 |
| LC4-1 (lymphoblastic leukaemia, suspension) | 0.871 | < 4.80 | 0.66 | 7.33 | 0.388 | 6.23 | 0.793 | 5.29 | 0.555 | 6.74 | 0.974 | < 5.70 |
| LOUCY (T-cell lymphoblastic leukaemia, suspension) | 0.966 | < 4.80 | 0.376 | 8.11 | 0.356 | 6.27 | 0.758 | 5.54 | 0.06 | > 8.11 | 0.992 | < 5.70 |
| LP-1 (myeloma, suspension) | 0.719 | 5.44 | 0.697 | 7.29 | 0.408 | 6.13 | 0.823 | 5.34 | 0.923 | < 5.70 | 0.993 | < 5.70 |
| LS-411N (large intestine, adherent) | 0.9 | < 4.80 | 0.366 | 8.20 | 0.796 | 4.93 | 0.756 | 5.39 | 0.982 | < 5.70 | 0.981 | < 5.70 |
